The record followed here is patent US20240050583A1, “PROTEIN-DRUG CONJUGATE AND SITE-SPECIFIC CONJUGATING METHOD” (HARBOUR BIOMED (SHANGHAI) CO., LTD, priority 2020, published 2024).

Data set [1] can be described thus: Melting temperature (Tm1) of proteins by DSF. The class given is physicochemical. The conditions noted are these: minimum melting temperature. As for the experimental part: Differential scanning fluorimetry (DSF) is a commonly used high-throughput method for determining the thermostability of proteins. In this method, changes in the fluorescence intensity of the dye that binds to unfolded protein molecules were monitored using a real-time quantitative fluorescence PCR instrument to reflect the denaturation process of the protein and thus to reflect the thermostability of the protein. In this example, the melting temperature (Tm) of a protein molecule was measured by DSF. 10 μg of protein was added to a 96-well PCR plate (Thermo, #AB-0700/W), followed by the addition of 2 μL of 100× diluted dye SYPRO™ (Invitrogen, #2008138), and then the mixture in each well was brought to a final volume of 40 μL by adding buffer. […] The FRET scanning mode was used and data analysis was performed using Bio-Rad CFX Maestro software to calculate the Tm of the sample.
The antigen-binding protein derived from PR004433 in Table 0-3 was expressed and purified according to the method described in 0, and the SEC-HPLC method described in 0 was used to analyze the purity and the DSF method described in 0 was used to determine the minimum melting temperature (Tm1). It can be seen that after the hinge region sequence of HCAb PR004433 is replaced with variant sequences of various linker peptides, and Cys6 and Cys2 are separated by at least 3 other amino acids, the variant sequences derived from PR004433 can be effectively expressed, and the expression yield and thermostability Tm1 of the vast majority of variant molecules are not affected.
On the technique in general: DSF heats the sample and reads unfolding from a dye or from intrinsic fluorescence.

A short description of data set [2]: Protein purity and polymers by SEC-HPLC. The following applies: purified antigen-binding protein; PR004433 from CHO, variants from HEK293. The procedure: In this example, analytical size-exclusion chromatography (SEC) was used to analyze the protein sample for purity and polymer form. An analytical chromatography column TSKgel G3000SWxl (Tosoh Bioscience, #08541, 5 μm, 7.8 mm×30 cm) was connected to a high performance liquid chromatography HPLC (Agilent Technologies, Agilent 1260 Infinity II) and equilibrated with a PBS buffer at room temperature for at least 1 h. A proper amount of the protein sample (at least 10 μg) was filtered through a 0.22 μm filter membrane and then injected into the system, and an HPLC program was set: the sample was passed through the chromatography column with PBS buffer at a flow rate of 1.0 mL/min for a maximum of 25 min. The detection wavelength was 280 nm. Operation was performed at room temperature. After being recorded, the chromatogram was integrated using ChemStation software and relevant data were calculated. An analysis was generated, with the retention time of the components with different molecular sizes in the sample reported.

Data set [3] is described as follows: Molecular weight and coupling product components (DAR) by LC-MS. The following applies: coupling product with mc-vc-PAB-MMAE, without HIC purification. The text has this: In this example, liquid chromatography-mass spectrometry (LC-MS) was used to analyze the protein sample for molecular weight. Those skilled in the art can use different models of liquid chromatography (LC) and mass spectrometer (MS) to establish similar analytical methods according to the technical instructions and through experimental exploration. Only representative methods are listed in this example.
In certain specific embodiments, determination of the molecular weight of a protein sample required desaccharification on the sample to remove modifications such as saccharide chains, for example, the sample was processed with glycosidase PNGase F (NEB, #P0705L) at 37° C. for at least 4 h. For example, in all examples of the present invention, when the molecular weight of protein samples was determined, unless otherwise emphasized, the protein samples to be tested were subjected to desaccharification by the glycosidase PNGase F.
In certain specific embodiments, determination of the reduced molecular weight of a protein sample required reduction on the sample, for example, the sample was processed with […] dithiothreitol (DTT) at 37° C. for 10 min. For example, in all examples of the present invention, the samples after reduction were called reduced samples, and the samples without reduction were called non-reduced samples.
Buffer A was 0.1% formic acid FA dissolved in water, and buffer B was 0.1% formic acid FA dissolved in acetonitrile. Injection: about 1 μg; flow rate: 0.3 mL/min; and operation temperature: 80° C. When reduced samples were tested, buffer A and buffer B were mixed within 12 min to form a linear gradient: using 10-60% B for the first 8 min and 80% B for the last 4 min. When non-reduced samples were tested, buffer A and buffer B were mixed within 9 min to form a linear gradient: using 15-60% B for the first 6 min and 80% B for the last 3 min.
Buffer A was 0.1% formic acid FA dissolved in water, and buffer B was 0.1% formic acid FA dissolved in acetonitrile. Injection: about 10 μL; flow rate: 0.2-0.5 mL/min; and operation temperature: 80° C. The detection wavelength was 214 nm.
In certain specific embodiments, the model of a mass spectrometer used was AB Sceix X500B, and the operating mode thereof was TOF-MS; when reduced samples were tested, a scanning range was 600-4000 m/z; when non-reduced samples were tested, a scanning range was 900-6000 m/z. Original mass spectrums were deconvolved by Sceix OS software to obtain molecular weight maps.
In certain other specific embodiments, the model of a mass spectrometer used was Waters Xevo G2-XS Q-TOF, and a molecular weight scanning range thereof was 500-4000 Da. Original mass spectrums were deconvolved by Water MaxEnt or Agilent MassHunter BioConfirm software.
In multiple specific embodiments of the present application, the combination set of different LC and MS conditions was used to achieve LC-MS combination for determining the molecular weight of protein samples. For example, in 0 and 0, the combination of conditions used was (chromatography column: ACQUITY UPLC Protein BEH C4; LC instrument: Waters Acquity UPLC; MS instrument: Waters Xevo G2-XS Q-TOF).

B1: PR006317: PR004433 variant, linker peptide Hinge9_7, SEQ ID NO: 125 (protein)
chain: EVQLVETGGGLIQPGGSLRLSCAASGFTVSDSYMTWVRQAPGKGLEWVSVIFSGGRTYYSDSVKGRFTISRDNAKNTLYLQMNSLRAEDTALYYCARRNYDDTRGTDVFDIWGQGTMVTVSSEPKSCASMNRGGGG[not shown - human IgG1 Fc]
modifications: PR006317 chain
Turning to B1, the “DSF Tm1 (° C.)” value in data set [1] stood at 55.0 °C. In addition, the “SEC-HPLC purity (%)” value in data set [2] was 99.33%. Also, the “Average DAR” value in data set [3] (TCEP 1.5 equivalents) amounted to 1.90; in data set [3] (TCEP 2.0 equivalents), 2.36; in data set [3] (TCEP 3.0 equivalents), 2.90; in data set [3] (TCEP 4.0 equivalents), 3.21; in data set [3] (TCEP 5.0 equivalents), 3.68.

B2: PR006314: PR004433 variant, linker peptide Hinge8_18, SEQ ID NO: 122 (protein)
chain: EVQLVETGGGLIQPGGSLRLSCAASGFTVSDSYMTWVRQAPGKGLEWVSVIFSGGRTYYSDSVKGRFTISRDNAKNTLYLQMNSLRAEDTALYYCARRNYDDTRGTDVFDIWGQGTMVTVSSEPKSCSSDVVGGR[not shown - human IgG1 Fc]
modifications: PR006314 chain
For B2, in data set [1], the “DSF Tm1 (° C.)” value worked out at 55.2 °C. For the same molecule, in data set [2], the “SEC-HPLC purity (%)” value is given as 99.34%. The “Average DAR” value in data set [3] (TCEP 1.5 equivalents) amounted to 1.18; in data set [3] (TCEP 2.0 equivalents) it was 1.44; in data set [3] (TCEP 3.0 equivalents), 1.84; in data set [3] (TCEP 4.0 equivalents), 2.31; in data set [3] (TCEP 5.0 equivalents), 2.59.

B3: PR006312: PR004433 variant, linker peptide Hinge7_19, SEQ ID NO: 120 (protein)
chain: EVQLVETGGGLIQPGGSLRLSCAASGFTVSDSYMTWVRQAPGKGLEWVSVIFSGGRTYYSDSVKGRFTISRDNAKNTLYLQMNSLRAEDTALYYCARRNYDDTRGTDVFDIWGQGTMVTVSSEPKSCSYLFGRV[not shown - human IgG1 Fc]
modifications: PR006312 chain
For the molecule B3, the “DSF Tm1 (° C.)” value in data set [1] was determined as 52.8 °C. In addition, the “SEC-HPLC purity (%)” value in data set [2] was found to be 99.18%. Also, the “Average DAR” value is on record as 1.98 in data set [3] (TCEP 1.5 equivalents); 2.10 in data set [3] (TCEP 2.0 equivalents); 2.36 in data set [3] (TCEP 3.0 equivalents); 2.53 in data set [3] (TCEP 4.0 equivalents); 2.52 in data set [3] (TCEP 5.0 equivalents).

B4: PR006031: PR004433 variant, linker peptide Hinge3_5, SEQ ID NO: 106 (antibody)
heavy: EVQLVETGGGLIQPGGSLRLSCAASGFTVSDSYMTWVRQAPGKGLEWVSVIFSGGRTYYSDSVKGRFTISRDNAKNTLYLQMNSLRAEDTALYYCARRNYDDTRGTDVFDIWGQGTMVTVSSEPKSCQPR[not shown - human IgG1 Fc]
With B4, the “DSF Tm1 (° C.)” value in data set [1] was 54.8 °C. In data set [2], the “SEC-HPLC purity (%)” value came out at 99.05%. For the same molecule, the “Average DAR” value in data set [3] (TCEP 1.5 equivalents) is reported as 1.64; in data set [3] (TCEP 2.0 equivalents) it was 2.12; in data set [3] (TCEP 3.0 equivalents), 2.65; in data set [3] (TCEP 4.0 equivalents), 3.02; in data set [3] (TCEP 5.0 equivalents), 3.41; in data set [3] (TCEP 6.0 equivalents), 3.69.

B5: PR006040: PR004433 variant, linker peptide Hinge6_4, SEQ ID NO: 115 (antibody)
heavy: EVQLVETGGGLIQPGGSLRLSCAASGFTVSDSYMTWVRQAPGKGLEWVSVIFSGGRTYYSDSVKGRFTISRDNAKNTLYLQMNSLRAEDTALYYCARRNYDDTRGTDVFDIWGQGTMVTVSSEPKSCAPVRPW[not shown - human IgG1 Fc]
Regarding B5, in data set [1], the “DSF Tm1 (° C.)” value came out at 54.6 °C. The “SEC-HPLC purity (%)” value in data set [2] is 98.65%. Moreover, the “Average DAR” value is listed as 1.63 in data set [3] (TCEP 1.5 equivalents); 1.91 in data set [3] (TCEP 2.0 equivalents); 2.25 in data set [3] (TCEP 3.0 equivalents); 2.60 in data set [3] (TCEP 4.0 equivalents); 2.7 in data set [3] (TCEP 5.0 equivalents); 2.95 in data set [3] (TCEP 6.0 equivalents).

B6: PR006037: PR004433 variant, linker peptide Hinge5_2, SEQ ID NO: 112 (antibody)
heavy: EVQLVETGGGLIQPGGSLRLSCAASGFTVSDSYMTWVRQAPGKGLEWVSVIFSGGRTYYSDSVKGRFTISRDNAKNTLYLQMNSLRAEDTALYYCARRNYDDTRGTDVFDIWGQGTMVTVSSEPKSCQAESR[not shown - human IgG1 Fc]
Take B6: the “DSF Tm1 (° C.)” value in data set [1] was 55.4 °C. Also, the “SEC-HPLC purity (%)” value in data set [2] was 98.95%. Further, the “Average DAR” value was found to be 1.30 in data set [3] (TCEP 1.5 equivalents); 1.36 in data set [3] (TCEP 2.0 equivalents); 1.68 in data set [3] (TCEP 3.0 equivalents); 2.03 in data set [3] (TCEP 4.0 equivalents); 2.20 in data set [3] (TCEP 5.0 equivalents); 2.35 in data set [3] (TCEP 6.0 equivalents).

B7: PR006320: PR004433 variant, linker peptide Hinge10_5, SEQ ID NO: 128 (protein)
chain: EVQLVETGGGLIQPGGSLRLSCAASGFTVSDSYMTWVRQAPGKGLEWVSVIFSGGRTYYSDSVKGRFTISRDNAKNTLYLQMNSLRAEDTALYYCARRNYDDTRGTDVFDIWGQGTMVTVSSEPKSCSVGRFGSMLE[not shown - human IgG1 Fc]
modifications: PR006320 chain
Turning to B7, the “DSF Tm1 (° C.)” value in data set [1] is 53.6 °C. Besides, in data set [2], the “SEC-HPLC purity (%)” value is reported as 97.80%. Also, the “Average DAR” value in data set [3] (TCEP 1.5 equivalents) is listed as 1.66; in data set [3] (TCEP 2.0 equivalents), 1.87; in data set [3] (TCEP 3.0 equivalents), 1.99; in data set [3] (TCEP 4.0 equivalents), 2.03; in data set [3] (TCEP 5.0 equivalents), 2.03.

B8: PR006034: PR004433 variant, linker peptide Hinge4_1, SEQ ID NO: 109 (antibody)
heavy: EVQLVETGGGLIQPGGSLRLSCAASGFTVSDSYMTWVRQAPGKGLEWVSVIFSGGRTYYSDSVKGRFTISRDNAKNTLYLQMNSLRAEDTALYYCARRNYDDTRGTDVFDIWGQGTMVTVSSEPKSCTGKM[not shown - human IgG1 Fc]
As to B8, the “DSF Tm1 (° C.)” value in data set [1] amounted to 55.2 °C. The “SEC-HPLC purity (%)” value in data set [2] is 99.65%. In addition, the “Average DAR” value is reported as 1.53 in data set [3] (TCEP 1.5 equivalents); 1.90 in data set [3] (TCEP 2.0 equivalents); 2.41 in data set [3] (TCEP 3.0 equivalents); 2.94 in data set [3] (TCEP 4.0 equivalents); 3.21 in data set [3] (TCEP 5.0 equivalents); 3.69 in data set [3] (TCEP 6.0 equivalents).
